From the supplement of paper PMC4967469

How the values were obtained:
Test in all cases: Viability of human cancer cell lines after 72 h of drug (GDSC screen)
[1] = compound: Cc1cnc(-c2cnc(NCCNc3ccc(C#N)cn3)nc2-c2ccc(Cl)cc2Cl)[nH]1 [CHIR-99021]
Procedure: (§1)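 Human cancer cell lines in 384-well plates, medium with 10% serum, drug for 72 h over a 256-fold dose range (nine 2-fold or five 4-fold steps up to the top dose). Adherent lines were fixed and stained with the nucleic acid dye Syto60, suspension lines read with resazurin; signal relative to control wells, capped at 0 and 100%. One two-parameter sigmoid per drug and line, fitted in a mixed model over all curves with the slope shared within a line.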

[2] = compound: COc1cc(O)c2c(c1)/C=C/C[C@H](O)[C@H](O)C(=O)/C=C\C[C@H](C)OC2=O [(5Z)-7-Oxozeaenol]; conditions: top dose 10 µM; top dose inferred
Procedure: as §1

[3] = compound: O=c1cc(-c2cccc3c2Sc2ccccc2S3)oc(N2CCOCC2)c1 [KU-55933]; conditions: top dose 10 µM
Procedure: as §1

[4] = compound: COc1cc2ncnc(-n3nc(-c4ccccn4)nc3N)c2cc1OC [CP466722]; conditions: top dose 16 µM; top dose inferred
Procedure: as §1

[5] = compound: C[C@]1(c2nc3c(C(N)=O)cccc3[nH]2)CCCN1 [ABT-888]; conditions: top dose 5 µM; top dose inferred
Procedure: as §1

[6] = compound: COc1cc(N2CCC(O)CC2)ccc1Nc1cc(Nc2ccccc2S(=O)(=O)C(C)C)c2cc[nH]c2n1 [MPS-1-IN-1]; conditions: top dose 20 µM; top dose inferred
Procedure: as §1

[7] = compound: Nc1ccn([C@@H]2O[C@H](CO)[C@@H](O)[C@@H]2O)c(=O)n1 [Cytarabine]; conditions: top dose 2 µM
Procedure: as §1

[8] = compound: Cc1ccc(F)c(NC(=O)Nc2ccc(-c3cccc4[nH]nc(N)c34)cc2)c1 [ABT-869]; conditions: top dose 1.024 µM; top dose inferred
Procedure: as §1

[9] = compound: C=CC(=O)Nc1cc(-n2c(=O)ccc3cnc4ccc(-c5cn[nH]c5)cc4c32)ccc1C [QL-X-138]; conditions: top dose 10.24 µM; top dose inferred
Procedure: as §1

[10] = compound: C/C=C(/C)C(=O)O[C@H]1C(C)=C2[C@H]([C@@H]1OC(=O)CCCCCCC)[C@@](C)(OC(C)=O)C[C@H](OC(=O)CCC)[C@@]1(O)[C@H]2OC(=O)[C@@]1(C)O [Thapsigargin]; conditions: top dose 0.512 µM; top dose inferred
Procedure: as §1

[11] = compound: CCn1c(-c2nonc2N)nc2cnc(Oc3cccc(NC(=O)c4ccc(OCCN5CCOCC5)cc4)c3)cc21 [GSK269962A]; conditions: top dose inferred
Procedure: as §1

[12] = compound: COc1nc(C)cnc1NS(=O)(=O)c1cccnc1-c1ccc(-c2nnco2)cc1 [Zibotentan]; conditions: top dose 20 µM; top dose inferred
Procedure: as §1

[13] = compound: Cc1ccc(-c2c(C(=O)CCl)n(CCCO)c3ncnc(N)c23)cc1 [CMK]; conditions: top dose 4 µM; top dose inferred
Procedure: as §1

[14] = top dose 2.56 µM, screen: GDSC drug entry 154
[15] = top dose 10 µM, screen: GDSC drug entry 1241, top dose inferred
[16] = top dose 2.5 µM, screen: GDSC drug entry 127
[17] = top dose 5 µM, screen: GDSC drug entry 1192

Cell Line | AUC [1, 14] | IC50 [1, 14] [µM] | AUC [1, 15] | IC50 [1, 15] [µM] | AUC [2] | IC50 [2] [µM] | AUC [3] | IC50 [3] [µM] | AUC [4] | IC50 [4] [µM] | AUC [5] | IC50 [5] [µM] | AUC [6] | IC50 [6] [µM] | AUC [7] | IC50 [7] [µM] | AUC [8] | IC50 [8] [µM] | AUC [9] | IC50 [9] [µM] | AUC [10] | IC50 [10] [µM] | AUC [11, 16] | IC50 [11, 16] [µM] | AUC [11, 17] | IC50 [11, 17] [µM] | AUC [12] | IC50 [12] [µM] | AUC [13] | IC50 [13] [µM]
MRK-nu-1 (breast, suspension) | 0.987 | > 2.56 | 0.987 | > 10 | 0.822 | 5.24 | 0.989 | > 10 | 0.938 | > 16 | 0.977 | > 5 | 0.869 | 15.9 | 0.99 | > 2 | 0.99 | > 1.02 | 0.819 | 5.22 | 0.459 | 0.025 | 0.693 | 0.517 | 0.728 | 1.3 | 0.99 | > 20 | 0.782 | 1.53
MS-1 (small cell lung carcinoma, suspension) | 0.991 | > 2.56 | 0.991 | > 10 | 0.808 | 4.52 | 0.965 | > 10 | 0.85 | 10.2 | 0.989 | > 5 | 0.756 | 6.19 | 0.97 | > 2 | 0.988 | > 1.02 | 0.742 | 2.87 | 0.435 | 0.0218 | 0.991 | > 2.5 | 0.967 | > 5 | 0.991 | > 20 | 0.918 | > 4
MZ1-PC (pancreas, adherent) | 0.955 | > 2.56 | 0.916 | > 10 | 0.679 | 2.25 | 0.961 | > 10 | 0.682 | 3.68 | 0.981 | > 5 | 0.686 | 4.75 | 0.824 | 1.58 | 0.981 | > 1.02 | 0.721 | 3.2 | 0.165 | 0.00224 | 0.981 | > 2.5 | 0.957 | > 5 | 0.969 | > 20 | 0.826 | 3.25
MZ2-MEL (melanoma, adherent) | 0.902 | > 2.56 | 0.921 | > 10 | 0.593 | 1.18 | 0.934 | > 10 | 0.676 | 3.39 | 0.952 | > 5 | 0.783 | 9.97 | 0.42 | 0.0728 | 0.962 | > 1.02 | 0.479 | 0.557 | 0.236 | 0.00473 | 0.966 | > 2.5 | 0.937 | > 5 | 0.978 | > 20 | 0.92 | > 4
Mo-T (hairy cell leukaemia, suspension) | 0.987 | > 2.56 | 0.979 | > 10 | 0.731 | 2.88 | 0.881 | > 10 | 0.763 | 5.88 | 0.972 | > 5 | 0.9 | > 20 | 0.71 | 0.496 | 0.986 | > 1.02 | 0.732 | 2.98 | 0.818 | 0.296 | 0.987 | > 2.5 | 0.945 | > 5 | 0.986 | > 20 | 0.981 | > 4
NB5 (neuroblastoma, adherent) | 0.987 | > 2.56 | 0.857 | 8.32 | 0.465 | 0.502 | 0.965 | > 10 | 0.893 | > 16 | 0.981 | > 5 | 0.873 | 19.6 | 0.706 | 0.481 | 0.985 | > 1.02 | 0.793 | 4.76 | 0.618 | 0.0677 | 0.987 | > 2.5 | 0.881 | > 5 | 0.982 | > 20 | 0.856 | 3.29
NB6 (neuroblastoma, adherent) | 0.958 | > 2.56 | 0.978 | > 10 | 0.967 | > 10 | 0.984 | > 10 | 0.822 | 12.3 | 0.982 | > 5 | 0.925 | > 20 | 0.929 | > 2 | 0.981 | > 1.02 | 0.641 | 1.73 | 0.305 | 0.00794 | 0.66 | 0.483 | 0.964 | > 5 | 0.98 | > 20 | 0.853 | > 4
NB10 (neuroblastoma, adherent) | 0.984 | > 2.56 | 0.917 | > 10 | 0.455 | 0.474 | 0.986 | > 10 | 0.916 | > 16 | 0.978 | > 5 | 0.832 | 12.3 | 0.53 | 0.15 | 0.985 | > 1.02 | 0.869 | 9.03 | 0.632 | 0.0735 | 0.517 | 0.173 | 0.862 | 4.11 | 0.987 | > 20 | 0.986 | > 4
NB13 (neuroblastoma, adherent) | 0.99 | > 2.56 | 0.846 | 6.05 | 0.793 | 4 | 0.966 | > 10 | 0.921 | > 16 | 0.989 | > 5 | 0.754 | 6.06 | 0.954 | > 2 | 0.989 | > 1.02 | 0.758 | 3.19 | 0.237 | 0.00623 | 0.872 | 1.93 | 0.902 | > 5 | 0.99 | > 20 | 0.726 | 1

IC50 is the fitted dose that halves viability relative to control wells, and lower means more sensitive; fits outside the tested doses are given as limits. AUC, from the same fit, is the share of area under the viability curve across the 256-fold dose range; values near 1 show little effect. For part of these data: Any top dose called inferred comes from the curve model; the source does not state it. For part of these data: Where an entry number is given, a second screen of the drug exists; the two often differ.
